Assay results as given in PubChem BioAssay AID504333 (National Center for Advancing Translational Sciences (NCATS), 2011).
In all, about 360,000 compounds went through this assay and about 16,000 (4.4%) were called active. Inconclusive means that the source gave no clear call. Such entries were picked first, then a sample of the others. Calls follow the shape of the dose curve; as a rule, active = well fitted inhibition curve with a large enough effect; inconclusive = small, poorly fitted or top-dose-only effect; inactive = no such curve, though single readings can be large or run the other way. Potencies beside an inconclusive call are fits to weak or partial responses and may not hold up.

Target: Bromodomain adjacent to zinc finger domain protein 2B (Homo sapiens) (UniProt Q9UIF8)
Assay: qHTS Assay for Inhibitors of BAZ2B; also: nearly all actives have a fitted effect of over 60% in size
Conditions: AlphaScreen BAZ2B-H3K14Ac peptide displacement; activity change, negative = inhibition: at 114 µM (top of the series) unless noted
Outline: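 In this displacement format the biotinylated H3(5-23) peptide acetylated at Lys14 serves as ligand at 50 nM, with BAZ2B at 50 nM in PBS pH 7.4 containing 0.01% Tween-20. Donor and acceptor beads are 10 ug/mL final.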
% is scaled to controls: 0 for no effect and ±100 for the full control effect; potency is read from the fitted curve at half-maximal effect; tags tell the direction and shape of the fitted curve.

Chain of UniProt Q9UIF8 (Q9UIF8 whole entry, looked up, the tested form may be a part): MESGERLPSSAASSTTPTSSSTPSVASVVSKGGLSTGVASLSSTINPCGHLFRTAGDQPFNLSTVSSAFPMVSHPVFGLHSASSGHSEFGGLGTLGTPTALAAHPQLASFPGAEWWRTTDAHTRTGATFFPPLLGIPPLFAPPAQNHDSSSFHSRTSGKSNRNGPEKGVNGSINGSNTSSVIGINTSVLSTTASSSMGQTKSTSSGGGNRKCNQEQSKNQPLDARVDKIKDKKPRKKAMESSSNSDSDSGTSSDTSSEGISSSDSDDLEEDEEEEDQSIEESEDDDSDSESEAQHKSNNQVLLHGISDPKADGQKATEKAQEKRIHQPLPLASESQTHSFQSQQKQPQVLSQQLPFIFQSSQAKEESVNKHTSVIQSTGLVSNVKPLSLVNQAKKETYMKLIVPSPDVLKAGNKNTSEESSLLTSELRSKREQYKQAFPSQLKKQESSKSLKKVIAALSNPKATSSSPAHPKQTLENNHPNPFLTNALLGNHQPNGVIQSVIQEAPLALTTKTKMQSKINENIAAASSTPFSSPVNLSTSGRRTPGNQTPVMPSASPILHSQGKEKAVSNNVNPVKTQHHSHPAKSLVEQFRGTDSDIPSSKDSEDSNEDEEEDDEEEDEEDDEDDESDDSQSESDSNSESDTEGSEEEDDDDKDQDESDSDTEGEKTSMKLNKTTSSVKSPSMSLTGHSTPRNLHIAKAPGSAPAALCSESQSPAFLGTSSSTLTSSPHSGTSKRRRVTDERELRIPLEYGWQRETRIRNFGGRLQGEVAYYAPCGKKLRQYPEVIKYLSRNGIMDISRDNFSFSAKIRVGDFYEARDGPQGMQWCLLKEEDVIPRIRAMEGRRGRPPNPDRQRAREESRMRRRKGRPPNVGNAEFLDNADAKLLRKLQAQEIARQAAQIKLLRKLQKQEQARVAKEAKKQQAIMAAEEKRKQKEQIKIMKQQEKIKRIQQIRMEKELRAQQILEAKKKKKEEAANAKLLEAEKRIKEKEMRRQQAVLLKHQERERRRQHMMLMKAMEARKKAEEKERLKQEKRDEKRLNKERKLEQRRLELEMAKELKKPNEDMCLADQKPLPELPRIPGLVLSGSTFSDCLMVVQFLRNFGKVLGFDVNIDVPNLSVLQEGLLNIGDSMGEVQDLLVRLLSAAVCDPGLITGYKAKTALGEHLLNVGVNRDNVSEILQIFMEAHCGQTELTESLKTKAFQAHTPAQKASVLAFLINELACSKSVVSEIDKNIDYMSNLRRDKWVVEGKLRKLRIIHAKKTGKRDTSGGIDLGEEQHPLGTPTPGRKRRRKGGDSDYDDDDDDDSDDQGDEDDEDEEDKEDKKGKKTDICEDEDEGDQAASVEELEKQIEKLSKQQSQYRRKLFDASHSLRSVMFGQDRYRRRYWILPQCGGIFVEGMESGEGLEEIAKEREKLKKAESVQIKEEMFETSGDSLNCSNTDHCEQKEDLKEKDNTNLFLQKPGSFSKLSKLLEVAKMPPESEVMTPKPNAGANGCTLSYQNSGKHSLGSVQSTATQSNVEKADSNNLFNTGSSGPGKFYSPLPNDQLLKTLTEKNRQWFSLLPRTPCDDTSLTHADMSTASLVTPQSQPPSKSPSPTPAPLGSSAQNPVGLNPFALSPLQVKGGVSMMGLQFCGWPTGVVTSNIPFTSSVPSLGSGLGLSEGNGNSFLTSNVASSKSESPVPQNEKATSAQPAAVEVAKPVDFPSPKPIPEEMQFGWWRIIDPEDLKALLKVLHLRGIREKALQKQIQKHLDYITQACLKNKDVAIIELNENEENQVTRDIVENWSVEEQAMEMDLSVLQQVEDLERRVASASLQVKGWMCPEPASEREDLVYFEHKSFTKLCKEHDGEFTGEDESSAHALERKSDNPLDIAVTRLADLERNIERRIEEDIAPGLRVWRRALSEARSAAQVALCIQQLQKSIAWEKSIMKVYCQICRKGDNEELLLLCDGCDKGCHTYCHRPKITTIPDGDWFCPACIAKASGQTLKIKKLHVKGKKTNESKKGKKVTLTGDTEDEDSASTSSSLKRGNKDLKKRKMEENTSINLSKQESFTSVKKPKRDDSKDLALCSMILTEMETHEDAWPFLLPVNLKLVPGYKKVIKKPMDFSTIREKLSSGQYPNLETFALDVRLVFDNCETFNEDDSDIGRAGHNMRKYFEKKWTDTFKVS

| SMILES | Potency | activity change, negative = inhibition |
| --- | --- | --- |
| COc1ccc(CCN(C)C(=S)Nc2cccc(C)c2)cc1OC | inconclusive: 89.1 µM [inhibitor, single point] | – |
| COc1ccc(N(C)S(=O)(=O)c2ccc(C)cc2)c([N+](=O)[O-])c1 | – | inactive: -28.6% |
| O=C(NC(=S)NNC(=O)c1ccccc1O)c1ccc(F)cc1 | inconclusive: 31.6 µM [inhibitor, full curve, poor fit] | – |
| CC(=O)C1=C(c2ccccc2)NC(=O)NC1c1ccccc1 (stereo unspecified) | – | inactive: 11.3% |
| CC1(C)c2ccccc2N2CC(=O)N(CC(N)=O)C21C (stereo unspecified) | inconclusive: 39.8 µM [inhibitor, partial curve] | – |
| O=C(c1sc2ccccc2c1Cl)N(Cc1ccco1)C1CCS(=O)(=O)C1 (stereo unspecified) | inconclusive: 70.8 µM [inhibitor, single point] | – |
| Cc1ccc(NC(=O)CNCC2CCCCC2)cc1S(=O)(=O)N(C)C | inconclusive: 89.1 µM [inhibitor, single point] | – |
| O=C(Cn1cnc2c(nnn2-c2ccccc2)c1=O)NCc1ccc(F)cc1 | inconclusive: 89.1 µM [inhibitor, single point] | – |
| Nc1cc(C(=O)O)c(N)c2c1C(=O)c1ccccc1C2=O | active: 14.1 µM | – |
| CCN(CC)CCOc1ccc2c(c1)C(=NNC(=O)c1ccccn1)c1cc(OCCN(CC)CC)ccc1-2 | active: 20 µM | – |
| CCOC(=O)c1cnc2ccccc2c1Nc1ccc(N2CCOCC2)cc1 | inconclusive: 39.8 µM [inhibitor, partial curve] | – |
| Cc1cccc(-c2nc(CS(=O)CC(=O)NCCCSC3CCCCC3)c(C)o2)c1 (stereo unspecified) | inconclusive: 79.4 µM [inhibitor, single point] | – |
| COc1cc(NC(=O)c2cc(-c3cccc(Cl)c3)on2)c(OC)cc1Cl | – | inactive: -7.31% |
| Cc1ccccc1NC(=O)CC1SC(=O)N(c2ccccc2)C1=O (stereo unspecified) | inconclusive: 70.8 µM [inhibitor, partial curve] | – |
| COc1cc2c(cc1OC)-c1cc(NC3CC3)nc(=O)n1CC2 | – | inactive: -1.87% |
| Cc1c(C(=O)Oc2cc(N)n(S(C)(=O)=O)n2)cccc1[N+](=O)[O-] | inconclusive: 79.4 µM [inhibitor, single point] | – |
| CCN(CC)CCCNC(=O)c1ccc(CS(=O)(=O)c2ccccc2OC)o1 | – | inactive: -3.9% |
| Cc1ccc2nc(C)cc(N/N=C/c3cccc(O)c3)c2c1 | inconclusive: 28.2 µM [inhibitor, single point] | – |
| O=C1/C(=C\c2cccnc2)SC(=S)N1c1ccc(F)cc1 | – | inactive: 4.88% |
| Oc1ccc(N=Nc2ccccc2C(F)(F)F)c2cccnc12 | active: 5.62 µM | – |
| C=CCOc1ccccc1/C=N/NC(=O)Cc1ccccc1 | inconclusive: 89.1 µM [inhibitor, single point] | – |
